Data from PubChem BioAssay AID686979 (National Center for Advancing Translational Sciences (NCATS), 2013).
In all, about 420,000 compounds went through this assay and about 50,000 (12%) were called active. The shares of active, inactive and inconclusive entries below differ from those in the screen. Calls follow the shape of the dose curve; as a rule, active = well fitted inhibition curve with a large enough effect; inconclusive = small, poorly fitted or top-dose-only effect; inactive = flat fitted curve, though single readings scatter. No potency is given beside an inconclusive call; the fits are too rough.

Experiment: qHTS for Inhibitors of human tyrosyl-DNA phosphodiesterase 1 (TDP1): qHTS in cells in presence of CPT; also: nearly all actives have a fitted effect of over 55% in size
Details: chicken DT40 Tdp1-/-;hTDP1 cells + 20 nM CPT, ATP luminescence, 48 h; activity change, negative = growth inhibition: at 46.2 µM (top of the series) unless noted
In short: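 Chicken DT40 Tdp1-/- cells complemented with human TDP1, 400 cells/well, exposed to compounds plus 20 nM camptothecin for at least 48 h at 37 C; viability read as ATP content by CellTiter-Glo luminescence.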
% is scaled to controls: 0 for no effect and ±100 for the full control effect; potency is read from the fitted curve at half-maximal effect; tags tell the direction and shape of the fitted curve.

SMILES | Potency | activity change, negative = growth inhibition
COc1ccc(-c2csc(NC(=O)CN3C(=O)C4CC=CCC4C3=O)n2)cc1 (stereo not given) | inconclusive [inhibitor, partial curve] | –
COCCN(C(=O)COC(=O)C(c1ccccc1)c1ccccc1)c1c(N)n(Cc2ccccc2)c(=O)[nH]c1=O | inconclusive [inhibitor, single point] | –
O=C(CCSc1ccccc1)Nc1nc2c(s1)COc1ccccc1-2 | inconclusive [inhibitor, single point] | –
COc1ccc(Cl)cc1Cn1c(C)c(C(=O)NCc2cccc([N+](=O)[O-])c2)sc1=O | inconclusive [inhibitor, single point] | –
CCN1C(=O)/C(=C\N2CCCCCC2)SC1=S | inconclusive [inhibitor, single point] | –
Cc1ccc(NC(=O)COC(=O)c2cccc(OC(F)F)c2)cc1S(=O)(=O)N1CCCCC1 | inconclusive [inhibitor, partial curve] | –
CC(=O)C1=C(NC(=O)c2ccccc2F)C[C@@H]2[C@H]1C2(C)C | inconclusive [inhibitor, single point] | –
COc1ccc(F)cc1S(=O)(=O)NC(Cc1ccccc1)C(N)=O (stereo not given) | – | inactive: -1.19%
C[C@H](CO)N1C[C@H](C)[C@@H](CN(C)Cc2ccccc2)OCc2cnnn2CCCC1=O | – | inactive: -0.53%
Nc1c(C(=O)Nc2ccc3c(c2)OCCO3)nnn1Cc1cccc(Cl)c1 | inconclusive [inhibitor, single point] | –
Cc1c(C(=O)NCc2ccc3c(c2)OCO3)oc2ccc(S(=O)(=O)N3CCCCCC3)cc12 | inconclusive [inhibitor, single point] | –
Cc1ccc(C2(C)NC(=O)N(CC(=O)Nc3cc(S(=O)(=O)N4CCCCC4)ccc3OC(C)C)C2=O)cc1 (stereo not given) | inconclusive [inhibitor, single point] | –
Cc1ccc(P(=O)(c2ccc(C)cc2)[C@@H](NC(c2ccccc2)c2ccccc2)c2ccccc2)cc1 | active: 18.4 µM | –
CCC(Sc1nnc2c3ccccc3n(CC)c2n1)C(=O)Nc1sc2c(c1C#N)CCCC2 (stereo not given) | inconclusive [inhibitor, single point] | –
Cc1cc2oc(=O)cc(CN3CCN(Cc4ccc5c(c4)OCO5)CC3)c2cc1C | inconclusive [inhibitor, single point] | –
CCn1c2ccccc2c2cc(NC(=O)c3ccco3)ccc21 | inconclusive [inhibitor, single point] | –
CC1(C)N=C(SCc2ccc(Cl)cc2)c2ccccc2N1 | inconclusive [inhibitor, partial curve] | –
O=C(Nc1ccncc1)Nc1cccc(Cl)c1Cl | active: 23.1 µM | –
CC(C)Oc1nc(-c2ccccc2Cl)nc2ccccc12 | inconclusive [inhibitor, partial curve] | –
Cc1c(C(=O)N2CCCCCC2)c(S(=O)(=O)Nc2cccc(C#N)c2)c(C)n1C | – | inactive: -22.7%
CCOC(=O)[C@]12CCCC=C1N(Cc1ccc(Cl)cc1Cl)C(=O)[C@H](CC(=O)NCc1cccc(C(F)(F)F)c1)C2 | active: 14.6 µM | –
Cc1cc(C)c(S(=O)(=O)N(CC(=O)N2CCOCC2)C2CCCCC2)c(C)c1 | inconclusive [inhibitor, single point] | –
CCOC(=O)c1c(C)[nH]c(C)c1S(=O)(=O)N1CCC(C(=O)Nc2ccccc2CC)CC1 | inconclusive [inhibitor, full curve, poor fit] | –
COCCOC(=O)c1c(C)n(C)c2ccc(OC(=O)c3c(OC)cccc3OC)cc12 | inconclusive [inhibitor, single point] | –

SMILES | Potency | activity change, negative = growth inhibition
CN(CCOc1ccccc1)Cc1ccccc1 | – | inconclusive: -32.6% [inhibitor]
Clc1ccc2nnnc(-c3ccccc3)c2c1 | active: 3.26 µM | –
COc1cc(/C=C2\SC(=S)N(CCC(=O)N3CCCCC3)C2=O)cc(OC)c1OC | active: 16.4 µM | –
COc1ccc(Cc2nnc(NC(=O)Nc3cccc(OC)c3)s2)cc1 | – | inactive: 2.76%
COc1cc(C)ccc1OCc1cc(C(=O)N2CCCCCC2)no1 | inconclusive [inhibitor, single point] | –
CC1CCCC(NC(=O)CCCn2ncn3c(cc4occc43)c2=O)C1C (stereo not given) | – | inactive: -3.84%
COc1ccc(CNC(=O)c2ccc(CS(=O)(=O)c3ccc(C)cc3)o2)cc1 | – | inactive: -22.1%
O=C(NC(Cc1ccccc1)C(=O)O)OCc1ccccc1 (stereo not given) | – | inactive: -10.7%
OC(COc1ccccc1)CSc1ncn[nH]1 (stereo not given) | – | inactive: -6.53%
O=C(Cc1n[nH]c(=O)c2ccccc12)OCC(=O)c1ccc(OC(F)F)cc1OC(F)F | – | inactive: -8.36%
Cn1c(=O)cc(SCC(=O)NCc2ccc(F)cc2)c2cc(Cl)ccc21 | active: 7.31 µM | –
CCCCN1CC[C@H]2C=CC[C@@H](C(=O)Nc3ccc(OC)cc3)[C@H]2C1=O | inactive | –
O=C(CCc1ccccc1)Nc1ccnn1C1CCN(C/C=C/c2ccccc2)CC1 | inconclusive [inhibitor, single point] | –
c1ccc(Nc2nc3ccccc3[nH]2)nc1 | inconclusive [inhibitor, single point] | –
COc1ccc(-c2cccc(C3CC=CC4C3C(=O)N(Cc3ccccc3)C4c3ccc(C(F)(F)F)cc3)c2)cc1 (stereo not given) | inconclusive [inhibitor, single point] | –
c1csc(CNc2ncnc3sccc23)c1 | active: 5.17 µM | –
C=CCOc1ccc(CN(C)CC(O)COc2cccc3ccccc23)cc1 (stereo not given) | inconclusive [inhibitor, single point] | –
Cc1nn(-c2ccccc2)c2c1P(=O)(O)/C(=C1\N(C)c3ccccc3C1(C)C)C=N2 | – | inactive: -23.2%
COc1ccccc1CNC(=O)CN1C(=O)NC(C)(c2ccc(C(C)(C)C)cc2)C1=O (stereo not given) | inconclusive [inhibitor, single point] | –
CCn1nc(C)cc1C(=O)N1CCCC(C(=O)c2ccc3ccccc3c2)C1 (stereo not given) | active: 11.6 µM | –
Cn1c(=O)c(=O)n(C)c2cc(NS(=O)(=O)c3ccc(Br)cc3)c(Cl)cc21 | – | inactive: -26.1%
CC(C)(C)c1ccccc1NC(=O)CN1C(=O)NC2(CCCCCC2)C1=O | – | inactive: -4.41%
Oc1cccc2c(NC(=S)Nc3ccc(OC(F)F)cc3)cccc12 | – | inactive: -58.5%
COC(=O)c1cccc(NC(=O)/C(=C\c2ccccc2)NC(=O)c2ccccc2Cl)c1 | inconclusive [inhibitor, single point] | –

SMILES | Potency | activity change, negative = growth inhibition
O=C(Nc1cccc(-c2csc(Nc3ccc(Cl)cc3)n2)c1)c1cc([N+](=O)[O-])cc(C(F)(F)F)c1 | active: 18.4 µM | –
CC(NCC(=O)Nc1cc(S(=O)(=O)N2CCCCCC2)ccc1Cl)c1ccccc1 (stereo not given) | active: 18.4 µM | –
CC(Sc1nnc(-c2cccnc2)n1-c1ccccc1)C(=O)NCc1ccc2c(c1)OCO2 (stereo not given) | – | inactive: -8.47%
CCOC(=O)/C(C#N)=N/Nc1ccc(S(=O)(=O)N2CCc3ccccc32)cc1 | inconclusive [inhibitor, single point] | –
CCCCNC(=O)CSc1nc2cc3c(cc2c(=O)n1Cc1ccc(C(=O)NCCc2ccc(OC)c(OC)c2)cc1)OCO3 | – | inactive: 11.9%
CC(C)N(Cc1nc(-c2ccc(Cl)cc2)no1)C(=O)C(c1ccccc1)c1ccccc1 | inconclusive [inhibitor, single point] | –
CC(NC(=O)c1c(O)c2ccccc2[nH]c1=O)c1ccccc1 (stereo not given) | – | inactive: -8.23%
CCOC(=O)C1=C(CNCc2ccccc2Cl)NC(=O)NC1c1ccc2c(c1)OCO2 (stereo not given) | inconclusive [inhibitor, single point] | –
C#CCOCCOCCOCCNc1nc(N2CCN(C(=O)CCCCCCCCCCNC(=O)[C@H]([C@@H](C)CC)n3cc(CCCCN=C(N)N)nn3)CC2)nc(N2CCN(C(=O)CCCCCCCCCCNC(=O)[C@H](CCCCN)n3cc(C)nn3)CC2)n1 | active: 23.1 µM | –
O=[N+]([O-])/C(=C\Nc1ccc(F)cc1F)S(=O)(=O)c1ccccc1 | – | inactive: -6.23%
Cn1c(-c2ncc(F)cc2F)cc2onc(-c3c(F)cccc3Cl)c2c1=O | inconclusive [inhibitor, partial curve, poor fit] | –
CCOC(=O)N1C(=O)NC(=O)C1c1ccccc1 (stereo not given) | – | inactive: -2.6%
COc1ccc(N2CCN(C(=O)c3cn(CC4CCCCC4)nn3)CC2)cc1 | inconclusive [inhibitor, single point] | –
CN(C)c1nc(SCc2ccc(Cl)cc2)nc2c1CCCC2 | – | inconclusive: -33.8% [inhibitor]
CCCc1c(-c2cccc(F)c2)ncn1CCc1ccccc1OC | inconclusive [inhibitor, single point] | –
CCOC(=O)c1sc(NC(=O)CSc2nnc(-c3ccco3)n2CC)c(C(=O)OCC)c1C | inconclusive [inhibitor, single point] | –
Cc1ccc2c(C)c(C(=O)N3CCN(c4cnccn4)CC3)oc2c1C | inconclusive [inhibitor, single point] | –
CC(c1ccon1)N(C)Cc1cn(Cc2ccccc2)nc1-c1ccc2c(c1)OCO2 (stereo not given) | active: 18.4 µM | –
CC(C)(C)NC(=O)C(c1cccs1)N(CC1CCCO1)C(=O)Cn1nnc(-c2cccs2)n1 (stereo not given) | – | inactive: -13.2%
CCOC(=O)C1CCCCN1Cc1cccc(Oc2ccccc2)c1 (stereo not given) | – | inactive: -4.65%
O=C(NCc1ccccc1)c1nc(-c2c(F)cccc2F)oc1-c1ccccc1 | inconclusive [inhibitor, single point] | –
COc1ccc(Nc2nc3nonc3nc2N2CCCCC2)cc1 | – | inactive: -2.14%
